# Reference: PubChem BioAssay AID1347073 (National Center for Advancing Translational Sciences (NCATS), 2019)
# About 200 (0.44%) of roughly 45,000 compounds were called active. Another 7% or so got no clear call; they are omitted. Calls follow the shape of the dose curve; as a rule, active = well fitted activation curve with a large enough effect; inconclusive = small, poorly fitted or top-dose-only effect; inactive = no such curve, though single readings can be large or run the other way. The list shows a part of the results.
# Experiment: qHTS of TDP-43 Inhibitors: NCGC Sytravon Library Screen; also: nearly all actives have a fitted effect of over 55% in size; as to growth rescue (activation): 0% is about no effect
# Details: yeast TDP-43 toxicity rescue, BacTiter-Glo growth, 24 h; series mostly up to 46.1 µM; growth rescue (activation): at the top concentration
# How it was run: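 TDP-43-expressing yeast, pregrown in raffinose, seeded at OD600 0.02 in galactose medium with compound for 24 hr at 30 deg C. Growth read by BacTiter-Glo luminescence, so rescue of toxicity appears as activation.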
# Potency is read from the fitted curve at half-maximal effect.
Structure (SMILES),growth rescue (activation),Potency
O=C(COC(=O)c1ccc(S(=O)(=O)NCc2ccco2)cc1)Nc1ccccc1,inactive: 28.3%,
CC(=O)Nc1ccc(CC(=O)NCCC(c2ccccc2)c2ccccc2)cc1,inactive: 8.23%,
CN=C1c2cc3cc(OC)ccc3n2CCN1Cc1ccccc1,inactive: -9.99%,
CC(C)NC(=O)CC(=O)N/N=C/c1cccs1,inactive: -3.2%,
NC(=O)C1CC(=O)N(c2ccc(OCC(=O)N3CCCC3)cc2)C1 (stereo unspecified),inactive: 0.937%,
O=C(c1ccco1)N1CCCC(c2nc3c(nnn3Cc3cccc(Cl)c3)c(=O)[nH]2)C1 (stereo unspecified),inactive: 8.5%,
Cc1cccc(C(=O)Nc2ccccc2SCC(=O)Nc2ccc(C)c(Cl)c2)c1,inactive: 7.42%,
CCn1c(SCC(=O)Nc2nccc(C)n2)nc2ccccc21,inactive: -2.78%,
O=C(C1CC1)N1N=C(c2ccncc2)CC1(O)C(F)(F)F (stereo unspecified),inactive: -6.42%,
Cc1nc(SCC(=O)Nc2cccc(S(=O)(=O)N3CCOCC3)c2)nc(C)c1C,inactive: -13.2%,
Cc1ccc2c(c1)N(CCC(=O)NCCCN1CCCC1)C(=O)C(C)O2 (stereo unspecified),inactive: 6.56%,
CC(C)(O)C#Cc1ccc(C(=O)N2CCC(CCC(=O)NC3CC3)CC2)cc1,inactive: 22.1%,
Cc1ccc(CN2C(=O)COc3cc(NS(C)(=O)=O)ccc32)cc1,inactive: -0.975%,
CN(Cc1ccccc1)c1oc(-c2ccco2)nc1C#N,,active: 14.1 µM
CCOc1ccc(C(=O)C(C)=O)c(OCC)c1,inactive: 3.43%,
CCCC(=O)N1CCC1(C)C(=O)Nc1ccc(C)c(C)c1 (stereo unspecified),inactive: 1.07%,
CCN1CCN(Cc2nc3ccc([N+](=O)[O-])cc3c(=O)n2-c2ccc(OC)cc2OC)CC1,inactive: 8.94%,
O=C(COC(=O)c1ccc(Br)c(S(=O)(=O)N2CCOCC2)c1)NCCc1ccccc1,inactive: -2.58%,
Cc1cc(C(=O)COc2ccccc2[N+](=O)[O-])c(C)n1C1CC1,inactive: 14.4%,
COc1cc(NC(=O)c2ccccc2Cl)c(OC)cc1NC(=O)CN1CCCCC1,inactive: 16%,
O=C(COC(=O)Cc1ccccc1)NCc1ccc2c(c1)OCO2,inactive: 16.9%,
CCOC(=O)c1nc2ccccc2s1,inactive: 4.78%,

Structure (SMILES),growth rescue (activation),Potency
CC(NCc1ccc([N+](=O)[O-])cc1)C1COc2ccccc2O1 (stereo unspecified),inactive: -8.78%,
CC/C(=C/c1sc2ccc(C)cc2[n+]1CCO)SC,inactive: 2.36%,
Cc1ccc(C)n1-c1nnc(N2CCCC(C(=O)NCc3ccc(Cl)cc3)C2)s1 (stereo unspecified),inactive: 8.02%,
O=C(NCc1cn2ccsc2n1)Nc1cccc(Cl)c1,inactive: -23%,
CN(C)C(=O)c1cc(-c2ccccc2)no1,inactive: 18.3%,
N#Cc1ccccc1OCCCNC1CCCC1,inactive: -8.5%,
O=C(CSc1nnc(Nc2ccccc2)s1)NCc1cccs1,inactive: 3.4%,
Cc1ccc(C(=O)C[n+]2ccccc2C)cc1[N+](=O)[O-],inactive: 4.88%,
C/C(CC(=O)N1CCN(C=O)CC1)=N\NC(=O)c1ccc(Br)cc1,inactive: -9.66%,
CC1(Oc2cccc(F)c2)CCN(Cc2ccc(-c3ccccn3)cc2)C1 (stereo unspecified),inactive: -4.49%,
CC1=CC(C)(C)Nc2ccc(OC(=O)CCN3C(=O)c4ccccc4C3=O)cc21,inactive: 20.1%,
CC(=O)N1CCN(C(=O)CCc2nnc(CCCCc3ccccc3)o2)CC1,inactive: 5.98%,
O=C(Nc1cccs1)Nc1cc(C(F)(F)F)ccc1Cl,inactive: 24.4%,
CCn1nc(NC(=O)CC(C)C)c2cc3cccc(C)c3nc21,inactive: -4.54%,
Cc1cc(C)cc(NC(=S)N2CCC(NC(=O)c3ccco3)CC2)c1,inactive: -6.34%,
COC(=O)c1cccc(NC(=O)/C=C/c2ccc3c(c2)OCO3)c1,inactive: 27.5%,
CCOc1ccc(CCNC(=O)CCc2c(C)nc3c4c(C)cc(C)nc4nn3c2C)cc1,inactive: -9.56%,
CCOC(=O)C1CCN(CCC(=O)Nc2cc(C)ccc2C)CC1,inactive: 2.89%,
CC1CN(S(=O)(=O)c2cccc(C(=O)N3CCC(C(N)=O)CC3)c2)CC(C)O1 (stereo unspecified),inactive: 13.4%,
COc1ccc(-c2[nH]ncc2CN2CCC(OCc3cccnc3)CC2)c(F)c1,inactive: -15.1%,
Cc1ccc(S(=O)(=O)N(C)/N=C2/C(=O)N(CC(=O)O)c3ccccc32)cc1,inactive: 8.96%,
C/C(=N/Nc1ccc(C(=O)O)cc1)c1ccc(O)c(O)c1O,inactive: 14.5%,

Structure (SMILES),growth rescue (activation),Potency
O=C(CCN1CCCO1)N1CCCC(N2CCN(c3cccc(C(F)(F)F)c3)CC2)C1 (stereo unspecified),inactive: -14.1%,
Nc1ccc(S(=O)(=O)NCc2ccccn2)cc1,inactive: -7.53%,
O=C(COC(=O)c1cc(Cl)nc(Cl)c1)Nc1ccc(Cl)c(S(=O)(=O)N2CCOCC2)c1,inactive: 9.37%,
CCOC(=O)N1CCN(C(=O)c2ccc(-n3c(C)ccc3C)cc2)CC1,inactive: -15.6%,
O=C1NC2(CCCCC2)C(=O)N1CCS(=O)(=O)Oc1ccc(Br)cc1,inactive: 6.51%,
O=C(Nc1ccc(NC(=O)C2CC2)cc1)c1ccco1,inactive: 0.213%,
CCOC(=O)C1CCN(C(=O)COc2ccc(S(=O)(=O)N3CCCC3)cc2C)CC1,inactive: -9.1%,
CCN(CC)CCNC(=S)Nc1ccc(F)cc1,inactive: 6.21%,
O=C(O)c1cccc(S(=O)(=O)Nc2ccc(OCc3ccccc3)cc2)c1,inactive: 0.529%,
Cc1cccc[n+]1CC(=O)/C=C1\N(C)c2ccccc2C1(C)C,inactive: 15.5%,
CCc1nnc(NS(=O)(=O)c2ccc(NC(=O)c3cc(Cl)ccc3Cl)cc2)s1,inactive: 0.579%,
Cc1csc(NC(=O)C2CC(=O)N(c3ccc(C)c(C)c3)C2)n1 (stereo unspecified),inactive: 1.17%,
CCOC(=O)c1ccc2c(c1)n(CCCS(=O)(=O)[O-])c(/C=C/c1ccc(Cl)cc1)[n+]2CC,inactive: 30%,
Cc1ccc(-c2nn(-c3ccccc3)cc2C(=O)Nc2ccc(C)c(S(=O)(=O)N3CCOCC3)c2)cc1,inactive: 2%,
CCOc1ccc(OCC)c(NC(=O)CN2CCN(c3cccc(C)c3)C(C)C2)c1 (stereo unspecified),inactive: 1.7%,
CCN(CC)CCN1C(=O)/C(=C\c2ccc(Cl)c([N+](=O)[O-])c2)SC1=Nc1ccc(OC)cc1,inactive: 0.248%,
CCCN1C(=O)/C(=N\OCC(=O)NCC(F)(F)F)c2ccccc21,inactive: 3.86%,
COc1ccccc1CN(C)CC(=O)Nc1cccc(S(=O)(=O)N2CCCC2)c1,inactive: -9.73%,
Cc1cc(C)nc(SCc2ccc(C(=O)N/N=C3\CCCC(=O)C3)cc2)n1,inactive: 6.87%,
Cc1ccc(-c2nn(C)c(=O)c3ccccc23)cc1S(=O)(=O)NCCN(C)C,inactive: -5.65%,
O=C(Cc1c(Cl)cccc1Cl)OCC(=O)N1CCN(C(=O)c2ccco2)CC1,inactive: 1.83%,
O=C(CN1C(=O)C(=O)N(C2CCCC2)C1=O)NCCc1ccc(F)cc1,inactive: 4.07%,

Structure (SMILES),growth rescue (activation),Potency
N#Cc1cc([N+](=O)[O-])cnc1N(CCO)CCO,inactive: 0.711%,
Cc1ccc([N+](=O)[O-])cc1NC(=O)CN1CCC(C)CC1,inactive: 14.8%,
O=C(CC1CCCCC1)NCc1ccccc1,inactive: 4.77%,
CCCOc1ccc(N2C(=O)C3ON(c4ccccc4)C(c4ccc(O)c(OC)c4)C3C2=O)cc1 (stereo unspecified),inactive: 4.3%,
S=c1[nH]nc(-c2c[nH]c3ccccc23)o1,inactive: 4.65%,
Cc1nc(C)c(-c2csc(Nc3ccc(F)cc3)n2)s1,inactive: 18.1%,
COc1ccc2[nH]c(=O)c(CN(Cc3cccnc3)S(=O)(=O)c3ccccc3F)cc2c1,inactive: 0.865%,
Cc1ccccc1NC(=O)CN1C(=O)CSc2ccccc21,inactive: 5.3%,
O=C(CSc1nc(-c2ccco2)cc(C(F)(F)F)n1)N1CCc2ccccc2C1,inactive: -3.53%,
Cc1ccc(S(=O)(=O)NCCN2CCOCC2)c(C)c1C,inactive: 8.55%,
CCS(=O)(=O)NC(=O)C1(C)CCN1C(=O)C1(c2ccc(Cl)cc2)CC1 (stereo unspecified),inactive: -0.585%,
CN(C)C(CNC1CC(C)(C)NC(C)(C)C1)c1cccc(F)c1 (stereo unspecified),inactive: -8.62%,
O=C1c2cccc3c(N4CCCCC4)ccc(c23)C(=O)N1c1ccc(O)cc1,inactive: 19.9%,
O=C(COC(=O)c1cc(-c2cccc3ccccc23)nc2ccccc12)NC1CCS(=O)(=O)C1 (stereo unspecified),inactive: -1.16%,
CCCSc1ncc(Cl)c(C(=O)Nc2ccc(S(=O)(=O)Nc3ncccn3)cc2)n1,inactive: 9.96%,
COc1ccccc1N1CCN(C(=O)c2sc3ncnc(N4CCN(c5ccccn5)CC4)c3c2C)CC1,inactive: 25%,
CCN1C(=O)C(=O)N(Cc2ccc(OC)c(F)c2)C1=O,inactive: -12.7%,
CCCCN(C(=O)CSc1nc(CCC)cc(=O)[nH]1)c1c(N)n(Cc2ccccc2)c(=O)[nH]c1=O,inactive: -24.4%,
COc1ccccc1-c1cnc(C(O)c2c(C)cc(C)cc2C)[nH]1 (stereo unspecified),inactive: 7.42%,
Cc1cc(NS(=O)(=O)c2ccc(NC(=O)/C=C/c3ccccc3)cc2)nc(C)n1,inactive: -7.53%,
Cn1c(C(=O)O)c(CC(=O)Nc2ccc3c(c2)OCCO3)c2ccccc21,inactive: 16.8%,
O=C(Nc1ccc(NC(=O)c2ccco2)nc1)c1cccc(F)c1,inactive: 2.75%,

Structure (SMILES),growth rescue (activation),Potency
COc1ccc(/C=N/NC(=O)c2cc(-c3cccn3C)n[nH]2)cc1OC,inactive: -3.25%,
CC(C)[C@H](NS(=O)(=O)c1ccccc1)C(=O)OCC(=O)N1N=C(c2ccc(Cl)cc2)CC1c1ccco1 (stereo partly specified),inactive: 14.8%,
CCN(C(=S)Nc1cccnc1)c1cccc2ccccc12,inactive: 10.2%,
COc1ccc(C(=O)Nc2ccccc2C(=O)N2CCOCC2)cc1Br,inactive: 5.03%,
COc1cc(C(=O)NC(=S)N2CCN(C)CC2)cc(OC)c1OC,inactive: 10.5%,
CCOc1ccc(-n2ccc(=O)c(C(=O)O)n2)cc1,inactive: -5.98%,
COc1ccc(C)cc1NC(=O)Nc1cccc(C(=O)O)c1,inactive: -3.05%,
COc1ccccc1NC(=O)c1ccc(NC(=O)CNC(=O)c2ccc(OC)c(OC)c2)cc1,inactive: 20.5%,
CC1(C)Cc2c(cnn2-c2ccc(F)cc2)C(NC(=O)c2ccc(=O)oc2)C1 (stereo unspecified),inactive: 25.8%,
CCNC(=O)C1CCCN(C(=O)c2cc(C)oc2C)CC1 (stereo unspecified),inactive: 3.68%,
Cc1cccc(N2CCN(C(=O)CCCn3c(=O)[nH]c4ccsc4c3=O)CC2C)c1 (stereo unspecified),inactive: 9.27%,
O=C(c1ccccc1NS(=O)(=O)c1ccc(F)cc1F)N1CCCCC1,inactive: 9.37%,
NC(=S)c1cc2cc(Br)ccc2oc1=O,inactive: 0.691%,
COc1ccc(OC)c(NC(=O)/C=C/c2ccc(S(=O)(=O)N3CCOCC3)cc2)c1,inactive: 13.1%,
Cc1cc(C(=O)CSc2nnc(-c3ccc4c(c3)OCO4)o2)c(C)n1-c1ccc(F)cc1,inactive: 2.75%,
CCc1cc2ccc(OC)cc2nc1SCC(=O)NNC(=O)c1ccco1,inactive: 13.6%,
CC1CC(C)CN(C(=O)CN2C(=O)NC3(CCCCCC3)C2=O)C1 (stereo unspecified),inactive: -5.11%,
COC(=O)CCCCNC(=O)Nc1ccccc1,inactive: -13.5%,
